In the supplement of paper PMC10126150:
Values marked as one replicate rest on one cluster of the flow cell; about a third of the high ones do not repeat.

System: ATP
Assay: switch fluorescence ratio, 500 uM ATP over buffer (Cy3 cluster intensity, sum of 5 cycles each) (fold (ratio)); higher = stronger signal-on switching upon ATP binding; sequences stand for … in TCGTCGGCAGCGTCAGATGTGTATAAGAGACAGTTTTTTTTTTTTTTTTTTTTTTTTT…TC
Conditions: aptamer strand: ATP DNA aptamer (quencher-CACCTGGGGGAGTATTGCGGAGGAAGG + anchor), 100 nM annealed; ATP concentration: 500 uM; one replicate
In short: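 Exposure to 500 uM ATP lasted 15 min at 22 °C before imaging, and a selection-buffer image was taken beforehand, for Cy3-labelled switching-strand clusters on a modified Illumina MiSeq flow-cell annealed to 100 nM quencher-labelled ATP aptamer. Five buffer/ATP cycles were run with NaOH stripping and re-annealing between them. The fluorescence ratio per cluster is summed target-cycle over summed buffer-cycle Cy3 intensity, averaged per switch-domain sequence. Clusters outside 100-1000 RFU were excluded.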

AGATTGAGTA was tested, and the switch fluorescence ratio was 0.984.
TTTATGACGC was tested, and the switch fluorescence ratio was 1.01.
Sequence GGTCGGAGCC has a switch fluorescence ratio of 0.978.
For TATCCGAGCC, the switch fluorescence ratio was 1.35.
For TGAGTACAAG, the switch fluorescence ratio was 0.986.
With ACTAGTAATG the switch fluorescence ratio was 1.
Sequence GGATGAGGCT has a switch fluorescence ratio of 0.972.
Sequence GTACCTTATT has a switch fluorescence ratio of 1.06.
For TTCGGGAGGC, the switch fluorescence ratio was 1.02.
TTGCAAACGG was tested, and the switch fluorescence ratio was 0.985.
In the case of CCGTAATTAT, the switch fluorescence ratio is reported as 2.32.
For AGCTACTATT, the switch fluorescence ratio was 1.01.
In the case of CCCTAATTAT, the switch fluorescence ratio is reported as 0.981.
CCCTCTTTTC showed a switch fluorescence ratio of 1.27.
Work on TCCGGGGGTC yielded a switch fluorescence ratio of 1.06.
Work on GAACAATTGG yielded a switch fluorescence ratio of 1.03.
Sequence ATACCTACTT has a switch fluorescence ratio of 1.24.
AGCTCCTATC gave a switch fluorescence ratio of 0.969.
GGGACCCGT gave a switch fluorescence ratio of 1.07.
In the case of CCTGTGGGAA, the switch fluorescence ratio is reported as 1.03.
TATTATAGT showed a switch fluorescence ratio of 0.997.
AGATGCACAT showed a switch fluorescence ratio of 1.03.
Sequence CCACGCCCTA has a switch fluorescence ratio of 1.54.
In the case of GTTGAAAGGA, the switch fluorescence ratio is reported as 0.967.
Sequence ATCCGGAAAA has a switch fluorescence ratio of 1.08.
Sequence CAGGAAGCCC has a switch fluorescence ratio of 1.03.
TACCTTGGCC was tested, and the switch fluorescence ratio was 1.1.
In the case of CGTGTTTTC, the switch fluorescence ratio is reported as 1.04.
For CGTCAGAGG, the switch fluorescence ratio was 1.
In the case of ACTCCGGAGT, the switch fluorescence ratio is reported as 1.03.
With ATGACACGGT the switch fluorescence ratio was 1.07.
In the case of TTGGGCAAGC, the switch fluorescence ratio is reported as 1.11.
With AATTTATACA the switch fluorescence ratio was 1.03.
With TTAGGATTGA the switch fluorescence ratio was 1.04.
TTGTTGATGA gave a switch fluorescence ratio of 0.995.
Sequence GTTTAAGACT has a switch fluorescence ratio of 0.984.
With GGAGCTTAGG the switch fluorescence ratio was 1.04.
AACCTCGTTT gave a switch fluorescence ratio of 1.13.
For TTTACTGTAT, the switch fluorescence ratio was 1.2.
In the case of ATGCTATACA, the switch fluorescence ratio is reported as 1.02.
Sequence GCTATTAGCT has a switch fluorescence ratio of 1.03.
GATGATGGTC was tested, and the switch fluorescence ratio was 1.02.
Work on GACACCTGTC yielded a switch fluorescence ratio of 1.18.
ATTTTGAGAT was tested, and the switch fluorescence ratio was 0.971.
Sequence ATCTTACTCT has a switch fluorescence ratio of 1.1.
Work on ACCAAAATTC yielded a switch fluorescence ratio of 2.11.
CCAGTCGTTT was tested, and the switch fluorescence ratio was 1.01.
With ATGGCGTCGT the switch fluorescence ratio was 1.03.
With CGATTGGCTT the switch fluorescence ratio was 1.02.
Work on CAGATTAACG yielded a switch fluorescence ratio of 1.04.
Work on AGGATAGCT yielded a switch fluorescence ratio of 1.06.
For GGGGAGATGA, the switch fluorescence ratio was 1.01.
Sequence TACCTATTTG has a switch fluorescence ratio of 1.
Sequence TCTATCGAT has a switch fluorescence ratio of 0.94.
For GATGTTCCTT, the switch fluorescence ratio was 1.
For AGAGCAGGGT, the switch fluorescence ratio was 1.01.
With TTCAGCATTA the switch fluorescence ratio was 1.14.
Work on CCAAGAAGTT yielded a switch fluorescence ratio of 1.68.
With ATAACGCTTA the switch fluorescence ratio was 1.03.
Sequence CAGGAGATCA has a switch fluorescence ratio of 1.04.
Work on ATCAGTTCGT yielded a switch fluorescence ratio of 0.977.
Work on ATTACGCGTG yielded a switch fluorescence ratio of 0.996.
Sequence TAGGGAAT has a switch fluorescence ratio of 1.01.
GGGATACAAA was tested, and the switch fluorescence ratio was 0.982.
For CTGTTGGGGA, the switch fluorescence ratio was 1.04.
With GTGGTCCAGC the switch fluorescence ratio was 0.984.
Work on AATTCGGTT yielded a switch fluorescence ratio of 1.01.
Work on GGTTGGACGA yielded a switch fluorescence ratio of 0.926.
TCAGTATTTG gave a switch fluorescence ratio of 0.983.
GTAGTCAAGA was tested, and the switch fluorescence ratio was 1.14.
Sequence AATAGACTTT has a switch fluorescence ratio of 1.
TCACGTAGCG was tested, and the switch fluorescence ratio was 1.11.
CGGCATAAGG was tested, and the switch fluorescence ratio was 0.999.
AGCGGGGGTC was tested, and the switch fluorescence ratio was 0.975.
In the case of TGATCATAAT, the switch fluorescence ratio is reported as 1.01.
TGGGCATGGG was tested, and the switch fluorescence ratio was 1.01.
ACTTTGCTGC was tested, and the switch fluorescence ratio was 1.22.
CGTAGGCGCA showed a switch fluorescence ratio of 1.
For AGTTCAGGAG, the switch fluorescence ratio was 1.05.
In the case of CGTAAGACCG, the switch fluorescence ratio is reported as 1.05.
TTGGGTCTGA gave a switch fluorescence ratio of 0.994.
For TAATGAGAGT, the switch fluorescence ratio was 0.959.
Sequence ATTCGTTGTC has a switch fluorescence ratio of 1.02.
TCGTCCCCTC was tested, and the switch fluorescence ratio was 1.11.
Sequence TCGGGAGTCG has a switch fluorescence ratio of 1.03.
